# This is one part of the list.
# B1: ArathEULS3 (Arabidopsis thaliana), Q945P1 (protein)
# chain: MEHHHQHHRHHQRDDGEDDRQSFGVPPPHVDAPPQPHGLYQSQPHFDPYAPTPQAPAPYRSETQFEPHAPPPYRSEPYFETPAPPPSFGHVSHVGHQSPNESYPPEHHRYGGYQQPSNSLLESHGDHSGVTHVAHHSSNQPQSSSGVYHKPDENRLPDNLAGLAGRATVKVYSKAEPNYNLTIRDGKVILAPADPSDEAQHWYKDEKYSTKVKDADGHPCFALVNKATGEAMKHSVGATHPVHLIRYVPDKLDESVLWTESKDFGDGYRTIRMVNNTRLNVDAYHGDSKSGGVRDGTTIVLWDWNKGDNQLWKIFPFILEQKLISEEDLNSAVDHHHHHH
# What was measured:
# Assay in all cases: glycan array binding signal (z-score within array); higher = stronger binding
# Conditions in all cases: glycan notation: IUPAC condensed, linker removed
# [1] = molecular target: Neu5Ac(a2-3)Gal(b1-3)GalNAc(b1-4)[Neu5Ac(a2-3)]Gal(b1-4)Glc
# How it was run: (§1)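 The binding signal is a Z-score computed within each array and averaged over linkers. Arrays of the same protein sequence at different concentrations or buffers were also averaged together. Data originate from 3228 arrays in the Consortium for Functional Glycomics database, kept only where the protein sequence was available.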
# [2] = molecular target: Neu5Ac(a2-3)Gal(b1-3)GalNAc(b1-4)[Neu5Ac(a2-8)Neu5Ac(a2-3)]Gal(b1-4)Glc
# How it was run: as §1
# [3] = molecular target: Neu5Ac(a2-3)Gal(b1-3)GalNAc6S
# How it was run: as §1
# [4] = molecular target: Neu5Ac(a2-3)Gal(b1-3)GlcNAc
# How it was run: as §1
# [5] = molecular target: Neu5Ac(a2-3)Gal(b1-3)GlcNAc(b1-2)Man(a1-3)[GlcNAc(b1-4)][Neu5Ac(a2-3)Gal(b1-3)GlcNAc(b1-2)Man(a1-6)]Man(b1-4)GlcNAc(b1-4)GlcNAc
# How it was run: as §1
# [6] = molecular target: Neu5Ac(a2-3)Gal(b1-3)GlcNAc(b1-3)Gal(b1-3)GlcNAc
# How it was run: as §1
# [7] = molecular target: Neu5Ac(a2-3)Gal(b1-3)GlcNAc(b1-3)Gal(b1-4)GlcNAc
# How it was run: as §1
# [8] = molecular target: Neu5Ac(a2-3)Gal(b1-3)GlcNAc(b1-3)GalNAc
# How it was run: as §1
# [9] = molecular target: Neu5Ac(a2-3)Gal(b1-3)GlcNAc(b1-6)GalNAc
# How it was run: as §1
# [10] = molecular target: Neu5Ac(a2-3)Gal(b1-3)GlcNAc6S
# How it was run: as §1
# [11] = molecular target: Neu5Ac(a2-3)Gal(b1-3)[Fuc(a1-4)]GlcNAc
# How it was run: as §1
# [12] = molecular target: Neu5Ac(a2-3)Gal(b1-3)[Fuc(a1-4)]GlcNAc(b1-3)Gal(b1-3)[Fuc(a1-4)]GlcNAc
# How it was run: as §1
# [13] = molecular target: Neu5Ac(a2-3)Gal(b1-3)[Fuc(a1-4)]GlcNAc(b1-3)Gal(b1-4)[Fuc(a1-3)]GlcNAc
# How it was run: as §1
# [14] = molecular target: Neu5Ac(a2-3)Gal(b1-3)[Neu5Ac(a2-3)Gal(b1-4)]GlcNAc
# How it was run: as §1
# [15] = molecular target: Neu5Ac(a2-3)Gal(b1-3)[Neu5Ac(a2-6)]GalNAc
# How it was run: as §1
# [16] = molecular target: Neu5Ac(a2-3)Gal(b1-3)[Neu5Ac(a2-6)]GlcNAc(b1-3)[Fuc(a1-3)[Gal(b1-4)]GlcNAc(b1-6)]Gal(b1-4)Glc
# How it was run: as §1
# [17] = molecular target: Neu5Ac(a2-3)Gal(b1-4)Glc
# How it was run: as §1
# [18] = molecular target: Neu5Ac(a2-3)Gal(b1-4)GlcNAc
# How it was run: as §1
# [19] = molecular target: Neu5Ac(a2-3)Gal(b1-4)GlcNAc(b1-2)Man
# How it was run: as §1
# [20] = molecular target: Neu5Ac(a2-3)Gal(b1-4)GlcNAc(b1-2)Man(a1-3)[GlcNAc(b1-2)Man(b1-4)GlcNAc(b1-2)Man(a1-6)]Man(b1-4)GlcNAc(b1-4)GlcNAc
# How it was run: as §1
# [21] = molecular target: Neu5Ac(a2-3)Gal(b1-4)GlcNAc(b1-2)Man(a1-3)[Neu5Ac(a2-3)Gal(b1-4)GlcNAc(b1-2)Man(a1-6)]Man(b1-4)GlcNAc(b1-4)[Fuc(a1-6)]GlcNAc
# How it was run: as §1
# [22] = molecular target: Neu5Ac(a2-3)Gal(b1-4)GlcNAc(b1-2)Man(a1-3)[Neu5Ac(a2-6)Gal(b1-4)GlcNAc(b1-2)Man(a1-6)]Man(b1-4)GlcNAc(b1-4)GlcNAc
# How it was run: as §1
# [23] = molecular target: Neu5Ac(a2-3)Gal(b1-4)GlcNAc(b1-2)[Neu5Ac(a2-3)Gal(b1-4)GlcNAc(b1-6)]Man(a1-6)[Neu5Ac(a2-3)Gal(b1-4)GlcNAc(b1-2)Man(a1-3)]Man(b1-4)GlcNAc(b1-4)GlcNAc
# How it was run: as §1
# [24] = molecular target: Neu5Ac(a2-3)Gal(b1-4)GlcNAc(b1-3)Gal
# How it was run: as §1
# [25] = molecular target: Neu5Ac(a2-3)Gal(b1-4)GlcNAc(b1-3)Gal(b1-3)GlcNAc
# How it was run: as §1
# [26] = molecular target: Neu5Ac(a2-3)Gal(b1-4)GlcNAc(b1-3)Gal(b1-4)GlcNAc
# How it was run: as §1
# [27] = molecular target: Neu5Ac(a2-3)Gal(b1-4)GlcNAc(b1-3)Gal(b1-4)GlcNAc(b1-3)Gal(b1-4)GlcNAc
# How it was run: as §1
# [28] = molecular target: Neu5Ac(a2-3)Gal(b1-4)GlcNAc(b1-3)Gal(b1-4)[Fuc(a1-3)]GlcNAc
# How it was run: as §1
# [29] = molecular target: Neu5Ac(a2-3)Gal(b1-4)GlcNAc(b1-3)GalNAc
# How it was run: as §1
# [30] = molecular target: Neu5Ac(a2-3)Gal(b1-4)GlcNAc(b1-3)[Neu5Ac(a2-3)Gal(b1-4)GlcNAc(b1-6)]GalNAc
# How it was run: as §1
# [31] = molecular target: Neu5Ac(a2-3)Gal(b1-4)GlcNAc(b1-6)GalNAc
# How it was run: as §1
# [32] = molecular target: Neu5Ac(a2-3)Gal(b1-4)GlcNAc(b1-6)[Gal(b1-3)]GalNAc
# How it was run: as §1
# [33] = molecular target: Neu5Ac(a2-3)Gal(b1-4)GlcNAc(b1-6)[Neu5Ac(a2-3)Gal(b1-3)]GalNAc
# How it was run: as §1
# [34] = molecular target: Neu5Ac(a2-3)Gal(b1-4)GlcNAc6S
# How it was run: as §1
# [35] = molecular target: Neu5Ac(a2-3)Gal(b1-4)[Fuc(a1-3)]GlcNAc
# How it was run: as §1
# [36] = molecular target: Neu5Ac(a2-3)Gal(b1-4)[Fuc(a1-3)]GlcNAc(b1-3)Gal
# How it was run: as §1
# [37] = molecular target: Neu5Ac(a2-3)Gal(b1-4)[Fuc(a1-3)]GlcNAc(b1-3)Gal(b1-4)GlcNAc
# How it was run: as §1
binder,measurement,setting,value
B1,glycan array binding signal (z-score),[1],-0.323
same,glycan array binding signal (z-score),[2],-0.117
same,glycan array binding signal (z-score),[3],-0.154
same,glycan array binding signal (z-score),[4],-0.07
same,glycan array binding signal (z-score),[5],0.194
same,glycan array binding signal (z-score),[6],-0.394
same,glycan array binding signal (z-score),[7],-0.22
same,glycan array binding signal (z-score),[8],-0.259
same,glycan array binding signal (z-score),[9],-0.265
same,glycan array binding signal (z-score),[10],-0.212
same,glycan array binding signal (z-score),[11],-0.211
same,glycan array binding signal (z-score),[12],-0.244
same,glycan array binding signal (z-score),[13],-0.301
same,glycan array binding signal (z-score),[14],-0.189
same,glycan array binding signal (z-score),[15],0.357
same,glycan array binding signal (z-score),[16],-0.217
same,glycan array binding signal (z-score),[17],0.049
same,glycan array binding signal (z-score),[18],-0.106
same,glycan array binding signal (z-score),[19],-0.101
same,glycan array binding signal (z-score),[20],-0.094
same,glycan array binding signal (z-score),[21],0.073
same,glycan array binding signal (z-score),[22],-0.138
same,glycan array binding signal (z-score),[23],1.98
same,glycan array binding signal (z-score),[24],-0.383
same,glycan array binding signal (z-score),[25],0.228
same,glycan array binding signal (z-score),[26],-0.347
same,glycan array binding signal (z-score),[27],1.44
same,glycan array binding signal (z-score),[28],-0.229
same,glycan array binding signal (z-score),[29],-0.326
same,glycan array binding signal (z-score),[30],-0.314
same,glycan array binding signal (z-score),[31],-0.302
same,glycan array binding signal (z-score),[32],-0.185
same,glycan array binding signal (z-score),[33],-0.292
same,glycan array binding signal (z-score),[34],-0.173
same,glycan array binding signal (z-score),[35],1.79
same,glycan array binding signal (z-score),[36],-0.374
same,glycan array binding signal (z-score),[37],0.376

# From the supplement of paper PMC8728848
